# Data as given in the supplement of paper PMC8728848.
# Some of the results follow.
# Key:
# Assay in all cases: glycan array binding signal (z-score within array); higher = stronger binding
# Conditions in all cases: glycan notation: IUPAC condensed, linker removed
# [1] = molecular target: GlcNAc(b1-4)Gal(b1-4)GlcNAc
# How it was run: (§1)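 The Consortium for Functional Glycomics database supplied 3228 glycan arrays, of which those lacking an available protein sequence were dropped. The binding signal, a within-array Z-score, was averaged across arrays of the same protein sequence and across linkers. Negative scores can be read as non-binding.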
# GlcNAc(b1-4)GlcNAc = molecular target: GlcNAc(b1-4)GlcNAc
# How it was run: as §1
# [2] = molecular target: GlcNAc(b1-4)GlcNAc(b1-4)GlcNAc
# How it was run: as §1
# [3] = molecular target: GlcNAc(b1-4)GlcNAc(b1-4)GlcNAc(b1-4)GlcNAc(b1-4)GlcNAc
# How it was run: as §1
# [4] = molecular target: GlcNAc(b1-4)GlcNAc(b1-4)GlcNAc(b1-4)GlcNAc(b1-4)GlcNAc(b1-4)GlcNAc
# How it was run: as §1
# [5] = molecular target: GlcNAc(b1-4)[GlcNAc(b1-6)]GalNAc
# How it was run: as §1
# [6] = molecular target: GlcNAc(b1-6)Gal(b1-4)GlcNAc
# How it was run: as §1
# GlcNAc(b1-6)GalNAc = molecular target: GlcNAc(b1-6)GalNAc
# How it was run: as §1
# GlcNAc3Prop(b1-4)GlcNAc = molecular target: GlcNAc3Prop(b1-4)GlcNAc
# How it was run: as §1
# [7] = molecular target: GlcNAc6S(b1-3)Gal(b1-4)GlcNAc
# How it was run: as §1
# Kdn(a2-3)Gal(b1-3)GalNAc = molecular target: Kdn(a2-3)Gal(b1-3)GalNAc
# How it was run: as §1
# Kdn(a2-3)Gal(b1-3)GlcNAc = molecular target: Kdn(a2-3)Gal(b1-3)GlcNAc
# How it was run: as §1
# Kdn(a2-3)Gal(b1-4)Glc = molecular target: Kdn(a2-3)Gal(b1-4)Glc
# How it was run: as §1
# Kdn(a2-3)Gal(b1-4)GlcNAc = molecular target: Kdn(a2-3)Gal(b1-4)GlcNAc
# How it was run: as §1
# [8] = molecular target: Kdn(a2-3)Gal(b1-4)[Fuc(a1-3)]GlcNAc
# How it was run: as §1
# Kdn(a2-6)Gal(b1-4)GlcNAc = molecular target: Kdn(a2-6)Gal(b1-4)GlcNAc
# How it was run: as §1
# [9] = molecular target: Man(a1-2)Man(a1-2)Man(a1-3)Man
# How it was run: as §1
# [10] = molecular target: Man(a1-2)Man(a1-2)Man(a1-6)[Man(a1-3)]Man
# How it was run: as §1
# Man(a1-2)Man(a1-3)Man = molecular target: Man(a1-2)Man(a1-3)Man
# How it was run: as §1
# [11] = molecular target: Man(a1-2)Man(a1-3)[Man(a1-2)Man(a1-6)]Man
# How it was run: as §1
# [12] = molecular target: Man(a1-2)Man(a1-3)[Man(a1-2)Man(a1-6)]Man(a1-6)[Man(a1-2)Man(a1-2)Man(a1-3)]Man
# How it was run: as §1
# [13] = molecular target: Man(a1-2)Man(a1-3)[Man(a1-2)Man(a1-6)]Man(a1-6)[Man(a1-2)Man(a1-2)Man(a1-3)]Man(b1-4)GlcNAc(b1-4)GlcNAc
# How it was run: as §1
# [14] = molecular target: Man(a1-2)Man(a1-3)[Man(a1-6)]Man(a1-6)[Man(a1-2)Man(a1-3)]Man(b1-4)GlcNAc(b1-4)GlcNAc
# How it was run: as §1
# [15] = molecular target: Man(a1-2)Man(a1-6)[Man(a1-3)]Man(a1-6)[Man(a1-2)Man(a1-2)Man(a1-3)]Man
# How it was run: as §1
# [16] = molecular target: Man(a1-2)Man(a1-6)[Man(a1-3)]Man(a1-6)[Man(a1-2)Man(a1-2)Man(a1-3)]Man(b1-4)GlcNAc(b1-4)GlcNAc
# How it was run: as §1
# Man(a1-3)[Man(a1-6)]Man = molecular target: Man(a1-3)[Man(a1-6)]Man
# How it was run: as §1
# [17] = molecular target: Man(a1-3)[Man(a1-6)]Man(a1-6)[Man(a1-2)Man(a1-3)]Man(b1-4)GlcNAc(b1-4)GlcNAc
# How it was run: as §1
# [18] = molecular target: Man(a1-3)[Man(a1-6)]Man(a1-6)[Man(a1-3)]Man
# How it was run: as §1
# [19] = molecular target: Man(a1-3)[Man(a1-6)]Man(a1-6)[Man(a1-3)]Man(b1-4)GlcNAc(b1-4)GlcNAc
# How it was run: as §1
# [20] = molecular target: Man(a1-3)[Man(a1-6)]Man(b1-4)GlcNAc(b1-4)GlcNAc
# How it was run: as §1
# [21] = molecular target: Man(a1-3)[Man(a1-6)]Man(b1-4)GlcNAc(b1-4)[Fuc(a1-6)]GlcNAc
# How it was run: as §1
# Man(a1-6)Man = molecular target: Man(a1-6)Man
# How it was run: as §1
# Man(b1-4)GlcNAc = molecular target: Man(b1-4)GlcNAc
# How it was run: as §1
# MurNAc(b1-4)GlcNAc = molecular target: MurNAc(b1-4)GlcNAc
# How it was run: as §1
# Neu5Ac(a2-3)Gal = molecular target: Neu5Ac(a2-3)Gal
# How it was run: as §1
# [22] = molecular target: Neu5Ac(a2-3)Gal(b1-3)GalNAc
# How it was run: as §1
# [23] = molecular target: Neu5Ac(a2-3)Gal(b1-3)GalNAc(b1-3)Gal(a1-4)Gal(b1-4)Glc
# How it was run: as §1
binder,measurement,setting,value
PpFlo1 (Pichia pastoris) (protein) MGSSHHHHHHSSGLVPRGSHMQESGDGDISDSAYACDIDATRYDGFNATIYEFQPGDGRLTRDPVFMSTGYLNRTQLHSITGVTDPGFSIYTPGVPTTTLYGIPNVNWENLLLELKGYFRAEVSGDYGLSLRNIDDSAILFFGKETAFQCCNENSISNEASTDYSLFTIFRQEGDETTNLDSFTYTQYLEAGKYYPVRTFFVNIERHAVFNFTMTLPDGTELTDFHNYIYQFGALDEEQCQA,glycan array binding signal (z-score),[1],-0.586
same,glycan array binding signal (z-score),GlcNAc(b1-4)GlcNAc,-0.231
same,glycan array binding signal (z-score),[2],-0.439
same,glycan array binding signal (z-score),[3],-0.26
same,glycan array binding signal (z-score),[4],-0.358
same,glycan array binding signal (z-score),[5],-0.617
same,glycan array binding signal (z-score),[6],-0.375
same,glycan array binding signal (z-score),GlcNAc(b1-6)GalNAc,-0.373
same,glycan array binding signal (z-score),GlcNAc3Prop(b1-4)GlcNAc,-0.063
same,glycan array binding signal (z-score),[7],-0.417
same,glycan array binding signal (z-score),Kdn(a2-3)Gal(b1-3)GalNAc,-0.254
same,glycan array binding signal (z-score),Kdn(a2-3)Gal(b1-3)GlcNAc,-0.318
same,glycan array binding signal (z-score),Kdn(a2-3)Gal(b1-4)Glc,-0.2
same,glycan array binding signal (z-score),Kdn(a2-3)Gal(b1-4)GlcNAc,-0.224
same,glycan array binding signal (z-score),[8],-0.255
same,glycan array binding signal (z-score),Kdn(a2-6)Gal(b1-4)GlcNAc,-0.505
same,glycan array binding signal (z-score),[9],-0.28
same,glycan array binding signal (z-score),[10],-0.385
same,glycan array binding signal (z-score),Man(a1-2)Man(a1-3)Man,-0.662
same,glycan array binding signal (z-score),[11],-0.425
same,glycan array binding signal (z-score),[12],-0.089
same,glycan array binding signal (z-score),[13],0.237
same,glycan array binding signal (z-score),[14],-0.06
same,glycan array binding signal (z-score),[15],-0.565
same,glycan array binding signal (z-score),[16],-0.128
same,glycan array binding signal (z-score),Man(a1-3)[Man(a1-6)]Man,-0.074
same,glycan array binding signal (z-score),[17],-0.017
same,glycan array binding signal (z-score),[18],-0.435
same,glycan array binding signal (z-score),[19],-0.052
same,glycan array binding signal (z-score),[20],-0.237
same,glycan array binding signal (z-score),[21],-0.358
same,glycan array binding signal (z-score),Man(a1-6)Man,-0.317
same,glycan array binding signal (z-score),Man(b1-4)GlcNAc,-0.39
same,glycan array binding signal (z-score),MurNAc(b1-4)GlcNAc,-0.467
same,glycan array binding signal (z-score),Neu5Ac(a2-3)Gal,-0.548
same,glycan array binding signal (z-score),[22],-0.261
same,glycan array binding signal (z-score),[23],-0.569
